Where “and” joins values, the source holds several entries; their conditions need not be identical. Equal values may be shown once. At least one read-out could not be matched to a standard name with certainty.
Tested on: Male Wistar rats
Assay: Determination of the diuresis (urine volume over 6 hours after oral dosing)
Assay type: in vivo, rat
Conditions: mean ± SEM; for Urine collected in 6 hours (mL) (30 mg/kg): p.o. 30 mg/kg in 0.5% Methocel, n=6 or 7, 30 mg/kg; for Urine collected in 6 hours (mL) (3 mg/kg): p.o. 3 mg/kg in 0.5% Methocel, n=6 or 7, 3 mg/kg
Method: Procedures were approved by the Institutional Animal Care and Use Committee of NitroMed, Inc. Male Wistar rats (180-200 g) were purchased from Charles River Laboratories (Kingston, N.Y. or Raleigh, N.C.) and allowed to acclimate in the facility for a period of at least 72 h. Rats were randomly housed 2-3 per cage in a light-controlled room with a 12 hour light/dark cycle and allowed ad libitum access to food and water.
Prior to the experiment, each rat was placed in a metabolic cage and allowed to acclimate for a period of 24-48 hours with food and water ad libitum. During this acclimation period, rats received mash food instead of pellet food to prevent contamination of the urine samples. All rats were fasted for 18 hours prior to experimentation. In addition, water was removed 90 minutes prior to oral dosing with test compound or vehicle.
The test compounds were prepared immediately prior to dosing in 0.5% Methocel (F4M Premium Hydroxypropyl Methylcellulose, lot # PF12012N12; Dow Chemical Company, USA) and homogenized with a glass/Teflon pestle motorized homogenizer. Gently vortexed test compounds were administered intragastrically (p.o.; 30 mg/kg or 3 mg/kg) at a dose volume of 3 ml per rat using an 18 gauge gavage needle. Urine volume (ml) was monitored and urine was collected for subsequent electrolyte analysis over a 6 hours period. […] Data are expressed as mean ±SEM; n=6 or 7.

SMILES | Urine collected in 6 hours (mL) (30 mg/kg) | Urine collected in 6 hours (mL) (3 mg/kg)
NS(=O)(=O)c1cc2c(cc1Cl)NC1(CCN(C(=O)CCCCO[N+](=O)[O-])CC1)NS2(=O)=O [Example 18b, Spiro[2H-1,2,4-benzothiadiazine-3(4H), 4′-piperidine]-7-sulfonamide, 6-chloro-1′-[5-(nitrooxy)-1-oxopentyl]-, 1,1-dioxide] | 3.0 ± 0.4 mL and 3.2 ± 0.5 mL | –
NS(=O)(=O)c1cc2c(cc1Cl)NCN(CCCO[N+](=O)[O-])S2(=O)=O [Example 35b, 2H-1,2,4-Benzothiadiazine-7-sulfonamide, 6-chloro-3,4-dihydro-2-[3-(nitrooxy)propyl]-, 1,1-dioxide] | – | 7.2 ± 0.3 mL and 7.3 ± 0.9 mL
NS(=O)(=O)c1cc2c(cc1C(F)(F)F)NC1(CCN(C(=O)CCCCO[N+](=O)[O-])CC1)NS2(=O)=O [Example 12c, Spiro[2H-1,2,4-benzothiadiazine-3(4H), 4′-piperidine]-7-sulfonamide, 1′-[5-(nitrooxy)-1-oxopentyl]-6-(trifluoromethyl)-, 1,1-dioxide] | 5.5 ± 0.4 mL and 8.7 ± 0.5 mL | 2.8 ± 0.4 mL and 3.9 ± 0.6 mL
NS(=O)(=O)c1cc2c(cc1Cl)NC(CCCCO[N+](=O)[O-])NS2(=O)=O (stereo not drawn) [Example 17b, 2H-1,2,4-Benzothiadiazine-7-sulfonamide, 6-chloro-3,4-dihydro-3-[4-(nitrooxy)butyl]-, 1,1-dioxide] | 5.8 ± 0.7 mL and 6.3 ± 0.4 mL | 6.5 ± 0.3 mL and 5.2 ± 0.5 mL

From patent US7595313B2, “Nitric oxide donating diuretic compounds, compositions and methods of use” (NicOx, S.A., priority 2005, dated 2009)
